The antibiotic and cytotoxicity screens of Wong et al. (2023)
The other results are listed elsewhere or left out.

What follows are compounds tested on HSkMC (human skeletal muscle cells) (assay: cytotoxicity call (relative viability < 0.9)). Conditions: 10 µM.

Structure (SMILES) | cytotoxicity call
Cc1cc(C(=O)Nc2cccc3c2O[C@H](CN(C)Cc2ccc(C(=O)O)cc2)[C@H](C)CN([C@H](C)CO)C3=O)n(C)n1 | inactive
COCC(=O)Nc1ccc2c(c1)OC[C@@H](C)N(C(=O)CN1CCOCC1)C[C@@H](C)[C@H](OC)CN(C)C2=O | inactive
C[C@H]1CN([C@@H](C)CO)C(=O)c2cccc(NC(=O)CCCCCC(=O)Nc3ccccc3N)c2O[C@@H]1CN(C)C(=O)Nc1ccc(C(F)(F)F)cc1 | inactive
CO[C@H]1O[C@H](CO)[C@@H](OC(=O)Nc2ccccc2)[C@@H]2OC(=O)[C@@H](Cc3ccc4ccccc4c3)C/C=C/C[C@H](Cc3ccc4ccccc4c3)C(=O)O[C@@H]12 | inactive
NCc1ccccc1-c1ccco1 | inactive
CCS(=O)(=O)NCC[C@@H]1CC[C@@H](NS(=O)(=O)c2ccccc2C)[C@H](CO)O1 | inactive
C[C@@H]1CCCCO[C@H](CN(C)C(=O)C2CCCCC2)[C@H](C)CN([C@@H](C)CO)C(=O)c2cc(NC(=O)Nc3ccc4c(c3)OCO4)ccc2O1 | inactive
Cc1noc(C)c1NC(=O)N(C)C[C@@H]1Oc2c(NC(=O)Nc3cccc4ccccc34)cccc2C(=O)N([C@H](C)CO)C[C@@H]1C | inactive
CC(=O)OC1CCC2(C)C(CCC3(C)C2CCC24OC(=O)C5(CCC(C)C(C)C52)CCC34C)C1(C)C (stereo not given) | inactive
C[C@@H]1CN([C@H](C)CO)C(=O)c2cccc(NC(=O)Nc3ccc(C(F)(F)F)cc3)c2O[C@@H]1CN(C)C(=O)Nc1ccc(C(F)(F)F)cc1 | active
O=C(O)c1cc(=O)cc[nH]1 | inactive
C[C@@H]1CCCCO[C@H](CN(C)S(=O)(=O)c2cn(C)cn2)[C@@H](C)CN([C@H](C)CO)C(=O)c2cc(NC(=O)c3ccncc3)ccc2O1 | inactive
C[C@@H]1CCCCO[C@H](CN(C)S(=O)(=O)c2cccs2)[C@@H](C)CN([C@@H](C)CO)C(=O)c2cc(NC(=O)Nc3ccc(F)cc3)ccc2O1 | inactive
COc1ccc(CN(C)C[C@@H]2Oc3ccc(NC(=O)CCCN(C)C)cc3C(=O)N([C@@H](C)CO)C[C@H]2C)cc1 | inactive
C[C@H]1CN([C@@H](C)CO)C(=O)CCCn2cc(nn2)CO[C@H]1CN(C)C(=O)c1ccc(N2CCN(C)CC2)cc1 | inactive
COc1ccccc1C(=O)Nc1ccc2c(c1)C(=O)N(C)[C@@H]1CC[C@H](CC(=O)NCCc3ccncc3)O[C@H]1CO2 | inactive
COc1ccc(S(=O)(=O)Nc2ccc3c(c2)C(=O)N([C@H](C)CO)C[C@@H](C)[C@@H](CN(C)C(=O)NC(C)C)O3)cc1 | inactive
Cc1cc(C(=O)c2cc3cc(Cl)ccc3o2)ccc1Cl | inactive
NNC(=S)Nc1cccc(F)c1 | inactive
C[C@H]1CN([C@@H](C)CO)C(=O)Cc2cc(NC(=O)C3CC3)ccc2O[C@@H]1CN(C)Cc1ccc2c(c1)OCO2 | inactive

Structure (SMILES) | cytotoxicity call
CC(=O)n1cc([C@@H]2C=C(C(=O)N3CCN(Cc4ccc5c(c4)OCO5)CC3)O[C@H](OCc3ccc(COC(=O)NCCCCCC(=O)NO)cc3)C2)c2ccccc21 | inactive
C[C@@H]1CCCCO[C@@H](CN(C)S(C)(=O)=O)[C@H](C)CN([C@@H](C)CO)C(=O)c2cc(NC(=O)Nc3ccc(C(F)(F)F)cc3)ccc2O1 | inactive
O=c1nc(N2CCc3ccccc3C2)cn[nH]1 | inactive
COc1ccc(NC(=O)Nc2ccc3c(c2)C(=O)N([C@@H](C)CO)C[C@@H](C)[C@@H](CN(C)S(=O)(=O)c2c(C)noc2C)OCCCC[C@@H](C)O3)cc1 | inactive
N=C(N=C(N)N)Nc1cccc(Cl)c1 | inactive
FC(F)(F)c1ccccc1-c1ncc(-c2ccccc2)o1 | inactive
COc1ccc(S(=O)(=O)Nc2ccc3c(c2)C(=O)N([C@H](C)CO)C[C@@H](C)[C@H](CN(C)C(=O)C2CCCCC2)OCCCC[C@H](C)O3)cc1 | inactive
C[C@H](O)C#Cc1ccc2c(c1)O[C@H](CN(C)C(=O)CN(C)C)[C@@H](C)CN([C@H](C)CO)S2(=O)=O | inactive
C[C@@H]1CN([C@@H](C)CO)C(=O)Cc2cc(NC(=O)Cn3cnnn3)ccc2O[C@@H]1CN(C)S(=O)(=O)c1ccc(F)cc1 | inactive
COc1ccc(C(=O)NCc2ccc(OCCN(C)C)cc2)cc1OC | inactive
C[C@@H]1CN([C@H](C)CO)C(=O)c2cccc(NS(=O)(=O)c3ccc(Cl)cc3)c2O[C@H]1CN(C)Cc1ccc(C(=O)Nc2ccccc2N)cc1 | inactive
C[C@H]1CN([C@@H](C)CO)C(=O)c2cc(NC(=O)c3ccncc3)ccc2O[C@@H]1CN(C)Cc1ccc(Oc2ccccc2)cc1 | inactive
C[C@H]1CCCCO[C@@H](CN(C)C(=O)Nc2ccc3c(c2)OCO3)[C@@H](C)CN([C@@H](C)CO)C(=O)c2cc(NC(=O)Nc3ccc(F)cc3)ccc2O1 | inactive
COc1ccc(NC(=O)N(C)C[C@@H]2OCCCC[C@@H](C)Oc3ccc(NC(=O)Nc4ccc(F)cc4)cc3C(=O)N([C@H](C)CO)C[C@H]2C)cc1 | inactive
CCC[C@@H](N[C@H]1CCS(=O)(=O)C1)C(=O)O | inactive
CN1C(=O)c2cc(NC(=O)Cc3cccs3)ccc2OC[C@H]2O[C@@H](CC(=O)NCc3ccc(-c4ccccc4)cc3)CC[C@@H]21 | inactive
Cc1cc(C)nc(C#N)n1 | inactive
OCCn1cncn1 | inactive
C[C@@H]1CN([C@H](C)CO)C(=O)c2cccc(NC(=O)c3nc4ccccc4s3)c2O[C@H]1CN(C)Cc1ccc(C(F)(F)F)cc1 | active
Cc1ccc(S(=O)(=O)Nc2ccc3c(c2)C(=O)N([C@H](C)CO)C[C@H](C)[C@@H](CN(C)C(=O)Nc2ccc4c(c2)OCO4)OCCCC[C@H](C)O3)cc1 | inactive
